Test results from patent US20220267438A1 (Janssen / Centocor, published 2022).

Tests used:
[1] = biological target: T1, human BCMA (B cell maturation antigen, TNFRSF17) on cells (human, UniProt Q02223 1-184); test: flow cytometry, H929-GPRC5D-KO cells (BCMA arm), 1 h 37C; median
T1 construct: whole, on cells; Target on H929 or MM.1R GPRC5D knockout cells, K562 cells expressing human BCMA, HEK293 cells of the cell microarray, and BCMA-only lymphoma lines; also called CD269; surface BCMA
T1 sequence (looked up): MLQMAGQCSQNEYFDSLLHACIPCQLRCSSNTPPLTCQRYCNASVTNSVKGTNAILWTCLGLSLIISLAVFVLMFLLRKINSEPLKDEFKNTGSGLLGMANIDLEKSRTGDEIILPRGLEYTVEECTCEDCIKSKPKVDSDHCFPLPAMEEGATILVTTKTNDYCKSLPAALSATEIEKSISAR
Experimental: (§1) Flow cytometry was used to evaluate the BCMA and GPRC5D arm binding of BGCB491 in vitro. BGCB491 and isotype control were tested on a panel of H929-WT, H929-BCMA-KO, H929-GPRC5D-KO, and H929-BCMA/GPRC5D-KO cell lines after 1-hour 37° C. incubation.

[2] = biological target: T2, bt-BCMA (biotinylated BCMA, Octet) (UniProt Q02223 1-54, limits assumed, biotinylated (site not given)); test: Octet, association rate to bt-BCMA in buffer against 50% human serum
T2 construct: Also used for the row 'BCMA' of the Octet serum interference test of BGCB463, where the reagent is not described; also called BCMA (Octet serum interference)
T2 sequence (looked up): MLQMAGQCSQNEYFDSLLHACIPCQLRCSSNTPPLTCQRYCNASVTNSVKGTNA

[3] = biological target: T3, human GPRC5D (G-protein coupled receptor family C group 5 member D) on cells (human, UniProt Q9NZD1 1-345); test: flow cytometry, H929-BCMA-KO cells (GPRC5D arm), 1 h 37C; Run 2
T3 construct: Target on H929 or MM.1R BCMA knockout cells, K562 cells expressing human GPRC5D and HEK293 cells of the cell microarray
Experimental: as §1

[4] = biological target: T4, CD3W200, recombinant CD3εγ heterodimer construct (human, UniProt P07766 22-118; P09693 23-103); test: SPR; antigen recombinant CD3εγ heterodimer construct (CD3W200)
T4 construct: also called human CD3 (SPR antigen for BGCB491)

[5] = biological target: T4, CD3W200, recombinant CD3εγ heterodimer …; test: SPR, CD3 binding after thermal stress
[6] = biological target: T5, human CD3 (CD3ε of the TCR/CD3 complex) on primary human pan T cells (human, UniProt P07766); test: flow cytometry on Pan T cells, donor D326589, 1 hr at 4 C, AF647 secondary detection
T5 construct: whole, on cells; On T cells CD3ε stands in the whole TCR/CD3 complex
Experimental: For binding of BGCB463 to human and cynomolgus Pan T cells, three human donors (Hemacare) were selected, quickly thawed, resuspended, and aliquoted into a 96-well plate at 1×10⁶ cells/mL. Cells were then washed, Fc blocked if necessary (Innovex), and stained with viability dye (Invitrogen). BGCB463 and its corresponding isotype (B23B251) were diluted in complete media to an initial concentration of 2 μM and 1:3 serial dilutions in duplicate were performed for a dose-response curve. The cells were incubated with molecules at 4° C. or 37° C. for 1 hour. When necessary, incubation with 90% human serum (Sigma) was also performed as described above.
First, FACS-based binding for GPRC5D and BCMA binding arms of the trispecific molecule was determined by measuring the effective concentration (EC) range from a dose-response curve using a 4-parameter fit at 37° C. for 1 hr. This was assessed using an H929 suite of cells (WT, GPRC5D-KO, BCMA-KO, and GPRC5D/BCMA KO), and a similar MM.1R suite. Cell based EC₅₀ is approximately 13 nM for WT H929 (FIGS. 2A-2D, Table 7) and 2.4 nM for WT MM.1R (FIGS. 3A-3D, Table 8). […] Next, cell-based EC₅₀ was determined for the CD3-binding Fab arm using purified Pan T cells from three random donors. […] Next, dose responsive binding was assessed at 4° C. to remove any potential biological effects. […]

[7] = biological target: T6, cynomolgus GPRC5D on K562 cells (cynomolgus monkey); test: flow cytometry on K562 cells expressing cynomolgus GPRC5D, 1 hr 37 C, average of Runs 1 and 2 (EC50 AVE)
T6 construct: whole, on cells; also called cyno GPRC5D
Experimental: FIGS. 9A-E. BGCB463 (circles) or negative control B23B251 (triangles) were all incubated with K562 cells expressing human GPRC5D (FIG. 9A), human BCMA (FIG. 9B), cynomolgus GPRC5D (FIG. 9C) or cynomolgus BCMA (FIG. 9D) for 1 hr at 37° C. at a starting concentration of 2 μM. After secondary detection with AF647-anti-human IgG, the MFI signal was analyzed to generate an EC₅₀ and EC₉₀ (FIG. 9E). Data are representative of two independent experiments.
The GPRC5D (i.e., GC5B680) and BCMA binding arms were assessed for cross-reactivity to cynomolgus monkey as part of the BGCB463 molecule, which uses the identical binding arms as BGCB491. Cross reactivity to cynomolgus monkeys was profiled for both target-binding scFv arms using FACS-based cell binding at 37° C. for 1 hour with K562 stably expressing human or cynomolgus monkey GPRC5D or BCMA. The cell-based EC₅₀ value for the GC5B680 scFv arm was approximately 30 nM against human GPRC5D-expressing cells and about 10-fold weaker (approximately 400 nM) on cynomolgus monkey GPRC5D-expressing cells.

[8] = biological target: T3, human GPRC5D (G-protein coupled …); test: flow cytometry, MM.1R BCMA KO cells, 1 h 37C; average of runs
[9] = biological target: T3, human GPRC5D (G-protein coupled …); test: flow cytometry, K562 cells expressing human GPRC5D, 1 h 37C

T3 sequence (Q9NZD1 whole entry): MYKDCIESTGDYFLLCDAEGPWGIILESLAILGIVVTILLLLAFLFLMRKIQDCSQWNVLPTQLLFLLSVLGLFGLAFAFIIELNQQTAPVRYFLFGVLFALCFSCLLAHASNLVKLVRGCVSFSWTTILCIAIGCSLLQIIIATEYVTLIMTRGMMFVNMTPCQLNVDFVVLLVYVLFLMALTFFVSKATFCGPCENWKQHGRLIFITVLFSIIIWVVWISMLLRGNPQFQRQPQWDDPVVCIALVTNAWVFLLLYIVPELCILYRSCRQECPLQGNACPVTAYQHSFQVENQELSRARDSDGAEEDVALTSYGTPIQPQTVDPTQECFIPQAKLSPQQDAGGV

B1: BGCB491 (other)
heavy: QVQLQQSGPRLVRPSQTLSLTCAISGDSVFNNNAAWSWIRQSPSRGLEWLGRTYYRSKWLYDYAVSVKSRITVNPDTSRNQFTLQLNSVTPEDTALYYCARGYSSSFDYWGQGTLVTVSSASTKGPSVFPLAPSSKSTSGGTAALGCLVKDYFPEPVTVSWNSGALTSGVHTFPAVLQSSGLYSLSSVVTVPSSSLGTQTYICNVNHKPSNTKVDKKVEPKSCDKTHTCPPCPAPEAAGGPSVFLFPPKPKDTLMISRTPEVTCVVVSVSHEDPEVKFNWYVDGVEVHNAKTKPREEQYNSTYRVVSVLTVLHQDWLNGKEYKCKVSNKALPAPIEKTISKAKGQPREPQVYTLPPSREEMTKNQVSLSCAVKGFYPSDIAVEWESNGQPENNYKTTPPVLDSDGSFFLVSKLTVDKSRWQQGNVFSCSVMHEALHNRFTQKSLSLSPGKGGGGSGGGGSGGGGSGGGGS[letters of about 100 residues not shown]QFPHTFGQGTKLEIKGGSEGKSSGSGSESKSTGGSQVTLKESGPVLVKPTETLTLTCTVSGFSLTNIRMSVSWIRQPPGKALEWLAHIFSNDEKSYSTSLKSRLTISRDTSKSQVVLTLTNVDPVDTATYYCARMRLPYGMDVWGQGTTVTVSS
light: QSALTQPASVSGSPGQSITISCTGTSSNIGTYKFVSWYQQHPDKAPKVLLYEVSKRPSGVSSRFSGSKSGNTASLTISGLQAEDQADYHCVSYAGSGTLLFGGGTKLTVLGQPKAAPSVTLFPPSSEELQANKATLVCLISDFYPGAVTVAWKADSSPVKAGVETTTPSKQSNNKYAASSYLSLTPEQWKSHRSYSCQVTHEGSTVEKTVAPTECS
chain: EIVLTQSPGTLSLSPGERATLSCRASQSISSSFLTWYQQKPGQAPRLLIYGASSRATGIPDRFSGGGSGTDFTLTISRLEPEDFAVYYCQHYGSSPMYTFGQGTKLEIKGGSEGKSSGSGSESKSTGGS[letters of about 100 residues not shown]DEGYSSGHYYGMDVWGQGTTVTVSSEPKSSDKTHTCPPCPAPEAAGGPSVFLFPPKPKDTLMISRTPEVTCVVVSVSHEDPEVKFNWYVDGVEVHNAKTKPREEQYNSTYRVVSVLTVLHQDWLNGKEYKCKVSNKALPAPIEKTISKAKGQPREPQVYTLPPSREEMTKNQVSLWCLVKGFYPSDIAVEWESNGQPENNYKTTPPVLDSDGSFFLYSKLTVDKSRWQQGNVFSCSVMHEALHNHYTQKSLSLSPGK
notes: Trispecific IgG1 antibody (L234A, L235A, D265S); Heavy chain 1 = anti-CD3 (CD3B376) Fab heavy chain, hole and RF mutations, with C-terminal anti-GPRC5D scFv (GC5B680); Heavy chain 2 = anti-BCMA scFv (BCMB519) - Fc knob; also called JNJ-79635322; BCMA×GPRC5D×CD3 trispecific mAb
- EC50 [1]: 54 nM
- ka buffer/ka serum [2]: < 2
- EC50 [3]: 66 nM
- Kd [4]: 25 nM
- Kd [5]: 25.8 nM

B2: BGCB463 (other)
heavy: QVQLQQSGPRLVRPSQTLSLTCAISGDSVFNNNAAWSWIRQSPSRGLEWLGRTYYRSKWLYDYAVSVKSRITVNPDTSRNQFTLQLNSVTPEDTALYYCARGYSSSFDYWGQGTLVTVSSASTKGPSVFPLAPSSKSTSGGTAALGCLVKDYFPEPVTVSWNSGALTSGVHTFPAVLQSSGLYSLSSVVTVPSSSLGTQTYICNVNHKPSNTKVDKKVEPKSCDKTHTCPPCPAPEAAGGPSVFLFPPKPKDTLMISRTPEVTCVVVSVSHEDPEVKFNWYVDGVEVHNAKTKPREEQYNSTYRVVSVLTVLHQDWLNGKEYKCKVSNKALPAPIEKTISKAKGQPREPQVYTLPPSREEMTKNQVSLSCAVKGFYPSDIAVEWESNGQPENNYKTTPPVLDSDGSFFLVSKLTVDKSRWQQGNVFSCSVMHEALHNRFTQKSLSLSPGK
light: QSALTQPASVSGSPGQSITISCTGTSSNIGTYKFVSWYQQHPDKAPKVLLYEVSKRPSGVSSRFSGSKSGNTASLTISGLQAEDQADYHCVSYAGSGTLLFGGGTKLTVLGQPKAAPSVTLFPPSSEELQANKATLVCLISDFYPGAVTVAWKADSSPVKAGVETTTPSKQSNNKYAASSYLSLTPEQWKSHRSYSCQVTHEGSTVEKTVAPTECS
chain: [letters of about 100 residues not shown]QFPHTFGQGTKLEIKGGSEGKSSGSGSESKSTGGSQVTLKESGPVLVKPTETLTLTCTVSGFSLTNIRMSVSWIRQPPGKALEWLAHIFSNDEKSYSTSLKSRLTISRDTSKSQVVLTLTNVDPVDTATYYCARMRLPYGMDVWGQGTTVTVSSEPKSSDKTHTCPPCPAPEAAGGPSVFLFPPKPKDTLMISRTPEVTCVVVSVSHEDPEVKFNWYVDGVEVHNAKTKPREEQYNSTYRVVSVLTVLHQDWLNGKEYKCKVSNKALPAPIEKTISKAKGQPREPQVYTLPPSREEMTKNQVSLWCLVKGFYPSDIAVEWESNGQPENNYKTTPPVLDSDGSFFLYSKLTVDKSRWQQGNVFSCSVMHEALHNHYTQKSLSLSPGKGGSEGKSSGSGSESKSTGGSEIVLTQSPGTLSLSPGERATLSCRASQSISSSFLTWYQQKPGQAPRLLIYGASSRATGIPDRFSGGGSGTDFTLTISRLEPEDFAVYYCQHYGSSPMYTFGQGTKLEIKGGSEGKSSGSGSESKSTGGS[letters of about 100 residues not shown]DEGYSSGHYYGMDVWGQGTTVTVSS
notes: Trispecific IgG1 antibody (L234A, L235A, D265S); Heavy chain 1 = anti-CD3 (CD3B376) Fab heavy chain with hole and RF mutations; also called BGCB463.003; BGCB463.004
- EC50 (read off the curve) [6]: ~30 nM
- EC50 [7]: 372 nM
- EC50 [8]: 19.7 nM
- EC50 [9]: ~30 nM
